# Assay results reported in the supplement of paper PMC8728848.
# The other results are listed elsewhere or left out.
# B1: WGA (Triticum vulgare) (protein)
# chain: QRCGEQGSNMECPNNLCCSQYGYCGMGGDYCGKGCQNGACWTSKRCGSQAGGATCPNNHCCSQYGHCGFGAEYCGAGCQGGPCRADIKCGSQSGGKLCPNNLCCSQWGFCGLGSEFCGGGCQSGACSTDKPCGKDAGGRVCTNNYCCSKWGSCGIGPGYCGAGCQSGGCDAVFAGAITANSTLLAE
# Tests used:
# Assay in all cases: glycan array binding signal (z-score within array); higher = stronger binding
# Settings in all cases: glycan notation: IUPAC condensed, linker removed
# [1] = biological target: GalNAc(a1-3)GalNAc(b1-3)Gal(a1-4)Gal(b1-4)Glc
# Procedure, shortened: (§1)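 Glycan array data were curated from 3228 arrays in the Consortium for Functional Glycomics database and kept only where the protein sequence was available. Glycan names were converted to IUPAC-condensed notation, and columns mapping to the same glycan were averaged. The binding signal is a within-array Z-score, averaged across arrays of the same protein sequence at different concentrations or buffers and across linkers. Negative Z-scores can be read as non-binding.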
# [2] = biological target: GalNAc(a1-3)GalNAc(b1-3)Gal(a1-4)Gal(b1-4)GlcNAc
# Procedure, shortened: as §1
# GalNAc(b1-3)Gal = biological target: GalNAc(b1-3)Gal
# Procedure, shortened: as §1
# [3] = biological target: GalNAc(b1-3)Gal(a1-4)Gal(b1-4)GlcNAc
# Procedure, shortened: as §1
# [4] = biological target: GalNAc(b1-3)Gal(a1-4)Gal(b1-4)GlcNAc(b1-3)Gal(b1-4)Glc
# Procedure, shortened: as §1
# [5] = biological target: GalNAc(b1-3)Gal(a1-6)Gal(b1-4)Glc
# Procedure, shortened: as §1
# GalNAc(b1-3)GalNAc = biological target: GalNAc(b1-3)GalNAc
# Procedure, shortened: as §1
# GalNAc(b1-3)GlcNAc = biological target: GalNAc(b1-3)GlcNAc
# Procedure, shortened: as §1
# GalNAc(b1-4)Gal(b1-4)Glc = biological target: GalNAc(b1-4)Gal(b1-4)Glc
# Procedure, shortened: as §1
# GalNAc(b1-4)GlcNAc = biological target: GalNAc(b1-4)GlcNAc
# Procedure, shortened: as §1
# [6] = biological target: GalNAc(b1-4)GlcNAc(b1-2)Man
# Procedure, shortened: as §1
# [7] = biological target: GalNAc(b1-4)GlcNAc(b1-2)Man(a1-3)[GalNAc(b1-4)GlcNAc(b1-2)Man(a1-6)]Man(b1-4)GlcNAc(b1-4)GlcNAc
# Procedure, shortened: as §1
# [8] = biological target: GalNAc(b1-4)GlcNAc(b1-3)GalNAc(b1-4)GlcNAc
# Procedure, shortened: as §1
# GalNAc(b1-4)GlcNAc6S = biological target: GalNAc(b1-4)GlcNAc6S
# Procedure, shortened: as §1
# GalNAc(b1-6)GalNAc = biological target: GalNAc(b1-6)GalNAc
# Procedure, shortened: as §1
# GalNAc3S(b1-4)GlcNAc = biological target: GalNAc3S(b1-4)GlcNAc
# Procedure, shortened: as §1
# GalNAc3S(b1-4)GlcNAc3S = biological target: GalNAc3S(b1-4)GlcNAc3S
# Procedure, shortened: as §1
# [9] = biological target: GalNAc3S(b1-4)[Fuc(a1-3)]GlcNAc
# Procedure, shortened: as §1
# GalNAc4S6S(b1-4)GlcNAc = biological target: GalNAc4S6S(b1-4)GlcNAc
# Procedure, shortened: as §1
# GalNAc6S(b1-4)GlcNAc = biological target: GalNAc6S(b1-4)GlcNAc
# Procedure, shortened: as §1
# Glc(a1-4)Glc = biological target: Glc(a1-4)Glc
# Procedure, shortened: as §1
# [10] = biological target: Glc(a1-4)Glc(a1-4)Glc(a1-4)Glc
# Procedure, shortened: as §1
# Glc(a1-6)Glc(a1-6)Glc = biological target: Glc(a1-6)Glc(a1-6)Glc
# Procedure, shortened: as §1
# [11] = biological target: Glc(a1-6)Glc(a1-6)Glc(a1-6)Glc
# Procedure, shortened: as §1
# Glc(b1-4)Glc = biological target: Glc(b1-4)Glc
# Procedure, shortened: as §1
# Glc(b1-6)Glc = biological target: Glc(b1-6)Glc
# Procedure, shortened: as §1
# GlcA(b1-3)Gal = biological target: GlcA(b1-3)Gal
# Procedure, shortened: as §1
# GlcA(b1-3)GlcNAc = biological target: GlcA(b1-3)GlcNAc
# Procedure, shortened: as §1
# GlcA(b1-6)Gal = biological target: GlcA(b1-6)Gal
# Procedure, shortened: as §1
# [12] = biological target: GlcA3S(b1-3)Gal(b1-4)GlcNAc(b1-2)Man
# Procedure, shortened: as §1
# [13] = biological target: GlcA3S(b1-3)Gal(b1-4)GlcNAc(b1-3)Gal(b1-4)Glc
# Procedure, shortened: as §1
# [14] = biological target: GlcNAc(a1-3)Gal(b1-4)GlcNAc
# Procedure, shortened: as §1
# [15] = biological target: GlcNAc(a1-4)Gal(b1-3)GlcNAc
# Procedure, shortened: as §1
# [16] = biological target: GlcNAc(a1-4)Gal(b1-4)GalNAc
# Procedure, shortened: as §1
# [17] = biological target: GlcNAc(a1-4)Gal(b1-4)GlcNAc
# Procedure, shortened: as §1
# [18] = biological target: GlcNAc(a1-4)Gal(b1-4)GlcNAc(b1-3)Gal(b1-4)Glc
# Procedure, shortened: as §1
# [19] = biological target: GlcNAc(a1-4)Gal(b1-4)GlcNAc(b1-3)Gal(b1-4)GlcNAc
# Procedure, shortened: as §1
# [20] = biological target: GlcNAc(a1-4)Gal(b1-4)GlcNAc(b1-3)Gal(b1-4)GlcNAc(b1-3)Gal(b1-4)GlcNAc
# Procedure, shortened: as §1
# [21] = biological target: GlcNAc(a1-4)Gal(b1-4)GlcNAc(b1-3)Gal(b1-4)[Fuc(a1-3)]GlcNAc(b1-3)Gal(b1-4)[Fuc(a1-3)]GlcNAc
# Procedure, shortened: as §1
# [22] = biological target: GlcNAc(a1-6)Gal(b1-4)GlcNAc
# Procedure, shortened: as §1
# [23] = biological target: GlcNAc(b1-2)Gal(b1-3)GalNAc
# Procedure, shortened: as §1
# [24] = biological target: GlcNAc(b1-2)Man(a1-3)[GlcNAc(b1-2)Man(a1-6)]Man(b1-4)GlcNAc(b1-4)GlcNAc
# Procedure, shortened: as §1
# [25] = biological target: GlcNAc(b1-2)Man(a1-3)[GlcNAc(b1-2)Man(a1-6)]Man(b1-4)GlcNAc(b1-4)[Fuc(a1-6)]GlcNAc
# Procedure, shortened: as §1
# [26] = biological target: GlcNAc(b1-2)Man(a1-3)[GlcNAc(b1-4)][GlcNAc(b1-2)Man(a1-6)]Man(b1-4)GlcNAc(b1-4)GlcNAc
# Procedure, shortened: as §1
# [27] = biological target: GlcNAc(b1-2)Man(a1-3)[GlcNAc(b1-4)][GlcNAc(b1-2)Man(a1-6)]Man(b1-4)GlcNAc(b1-4)[Fuc(a1-6)]GlcNAc
# Procedure, shortened: as §1
binder,measurement,setting,value
B1,glycan array binding signal (z-score),[1],-0.322
same,glycan array binding signal (z-score),[2],-0.319
same,glycan array binding signal (z-score),GalNAc(b1-3)Gal,-0.318
same,glycan array binding signal (z-score),[3],0.119
same,glycan array binding signal (z-score),[4],-0.333
same,glycan array binding signal (z-score),[5],-0.316
same,glycan array binding signal (z-score),GalNAc(b1-3)GalNAc,-0.108
same,glycan array binding signal (z-score),GalNAc(b1-3)GlcNAc,-0.292
same,glycan array binding signal (z-score),GalNAc(b1-4)Gal(b1-4)Glc,-0.265
same,glycan array binding signal (z-score),GalNAc(b1-4)GlcNAc,2.78
same,glycan array binding signal (z-score),[6],2.71
same,glycan array binding signal (z-score),[7],2.38
same,glycan array binding signal (z-score),[8],2.8
same,glycan array binding signal (z-score),GalNAc(b1-4)GlcNAc6S,1.43
same,glycan array binding signal (z-score),GalNAc(b1-6)GalNAc,1
same,glycan array binding signal (z-score),GalNAc3S(b1-4)GlcNAc,0.055
same,glycan array binding signal (z-score),GalNAc3S(b1-4)GlcNAc3S,-0.384
same,glycan array binding signal (z-score),[9],-0.364
same,glycan array binding signal (z-score),GalNAc4S6S(b1-4)GlcNAc,-0.368
same,glycan array binding signal (z-score),GalNAc6S(b1-4)GlcNAc,2.33
same,glycan array binding signal (z-score),Glc(a1-4)Glc,-0.332
same,glycan array binding signal (z-score),[10],-0.309
same,glycan array binding signal (z-score),Glc(a1-6)Glc(a1-6)Glc,-0.364
same,glycan array binding signal (z-score),[11],-0.349
same,glycan array binding signal (z-score),Glc(b1-4)Glc,-0.351
same,glycan array binding signal (z-score),Glc(b1-6)Glc,-0.351
same,glycan array binding signal (z-score),GlcA(b1-3)Gal,-0.355
same,glycan array binding signal (z-score),GlcA(b1-3)GlcNAc,-0.359
same,glycan array binding signal (z-score),GlcA(b1-6)Gal,-0.307
same,glycan array binding signal (z-score),[12],-0.349
same,glycan array binding signal (z-score),[13],-0.339
same,glycan array binding signal (z-score),[14],2.52
same,glycan array binding signal (z-score),[15],1.59
same,glycan array binding signal (z-score),[16],1.14
same,glycan array binding signal (z-score),[17],2.77
same,glycan array binding signal (z-score),[18],2.56
same,glycan array binding signal (z-score),[19],2.55
same,glycan array binding signal (z-score),[20],3.16
same,glycan array binding signal (z-score),[21],2.13
same,glycan array binding signal (z-score),[22],-0.033
same,glycan array binding signal (z-score),[23],0.54
same,glycan array binding signal (z-score),[24],0.461
same,glycan array binding signal (z-score),[25],-0.336
same,glycan array binding signal (z-score),[26],1.9
same,glycan array binding signal (z-score),[27],1.84
